According to publication PMC12102759 (2025):

B1: NFE2L1 peptide 226-241 (Endoplasmic reticulum membrane sensor NFE2L1), 16-mer library wild type / KEAP1 KELCH (KEAP1 6 Kelch repeats, […]) (parent complex)
chain 1: RNLLVDGETGESFPAQ
chain 2: not shown

Variants of: B1
Assay: proteomic peptide phage display deep mutational scan (ProP-PD DMS): M13 P8 16-mer library selected against immobilised GST-tagged bait for four days (rounds), NGS of the eluted pools per day and pseudo-replica; bait immobilised on MaxiSorp plates (10 µg), library pre-cleared on GST, 2 h binding at 4 °C, five washes; one round per day, days 1-4; value from days 2 and 3

First: chain 1 D6A
Second: chain 1 F13G
The screen value of the first is lower: 0.000331 average fractional NGS count over selection days 2 and 3 (reads of this peptide / all reads for the bait, averaged over … for the first, 0.000483 average fractional NGS count over selection days 2 and 3 (reads of this peptide / all reads for the bait, averaged over … for the second.

First: chain 1 V5Q
Second: chain 1 P14A
The screen value of the first is lower: 0.00016 average fractional NGS count over selection days 2 and 3 (reads of this peptide / all reads for the bait, averaged over … for the first, 0.000189 average fractional NGS count over selection days 2 and 3 (reads of this peptide / all reads for the bait, averaged over … for the second.

First: chain 1 P14V
Second: chain 1 E11Q
The screen value of the first is lower: 0.00024 average fractional NGS count over selection days 2 and 3 (reads of this peptide / all reads for the bait, averaged over … for the first, 0.00189 average fractional NGS count over selection days 2 and 3 (reads of this peptide / all reads for the bait, averaged over … for the second.

First: chain 1 A15V
Second: chain 1 V5E
The screen value of the first is lower: 0.00112 average fractional NGS count over selection days 2 and 3 (reads of this peptide / all reads for the bait, averaged over … for the first, 0.00172 average fractional NGS count over selection days 2 and 3 (reads of this peptide / all reads for the bait, averaged over … for the second.

Compared with chain 1 P14H, chain 1 Q16N is lower in screen value: 0.00165 average fractional NGS count over selection days 2 and 3 (reads of this peptide / all reads for the bait, averaged over … for the first, 0.000263 average fractional NGS count over selection days 2 and 3 (reads of this peptide / all reads for the bait, averaged over … for the second.

Going from chain 1 N2S to chain 1 E8M, the screen value rises from 0.000302 average fractional NGS count over selection days 2 and 3 (reads of this peptide / all reads for the bait, averaged over … to 0.000538 average fractional NGS count over selection days 2 and 3 (reads of this peptide / all reads for the bait, averaged over ….

Compared with chain 1 D6L, chain 1 F13K is lower in screen value: 0.000213 average fractional NGS count over selection days 2 and 3 (reads of this peptide / all reads for the bait, averaged over … for the first, 0.000149 average fractional NGS count over selection days 2 and 3 (reads of this peptide / all reads for the bait, averaged over … for the second.

Going from chain 1 P14D to chain 1 Q16L, the screen value falls from 0.000322 average fractional NGS count over selection days 2 and 3 (reads of this peptide / all reads for the bait, averaged over … to 0.000141 average fractional NGS count over selection days 2 and 3 (reads of this peptide / all reads for the bait, averaged over ….

Compared with chain 1 D6S, chain 1 E8T is lower in screen value: 0.00307 average fractional NGS count over selection days 2 and 3 (reads of this peptide / all reads for the bait, averaged over … for the first, 0.000832 average fractional NGS count over selection days 2 and 3 (reads of this peptide / all reads for the bait, averaged over … for the second.

Going from chain 1 A15D to chain 1 E8A, the screen value falls from 0.000361 average fractional NGS count over selection days 2 and 3 (reads of this peptide / all reads for the bait, averaged over … to 0.000233 average fractional NGS count over selection days 2 and 3 (reads of this peptide / all reads for the bait, averaged over ….

Compared with chain 1 L4T, chain 1 S12D is higher in screen value: 0.000116 average fractional NGS count over selection days 2 and 3 (reads of this peptide / all reads for the bait, averaged over … for the first, 0.00035 average fractional NGS count over selection days 2 and 3 (reads of this peptide / all reads for the bait, averaged over … for the second.

Going from chain 1 S12Q to chain 1 S12K, the screen value rises from 0.000125 average fractional NGS count over selection days 2 and 3 (reads of this peptide / all reads for the bait, averaged over … to 0.00103 average fractional NGS count over selection days 2 and 3 (reads of this peptide / all reads for the bait, averaged over ….

Going from chain 1 N2A to chain 1 N2Y, the screen value falls from 0.000403 average fractional NGS count over selection days 2 and 3 (reads of this peptide / all reads for the bait, averaged over … to 0.000201 average fractional NGS count over selection days 2 and 3 (reads of this peptide / all reads for the bait, averaged over ….

Going from chain 1 P14E to chain 1 N2T, the screen value rises from 0.000426 average fractional NGS count over selection days 2 and 3 (reads of this peptide / all reads for the bait, averaged over … to 0.000491 average fractional NGS count over selection days 2 and 3 (reads of this peptide / all reads for the bait, averaged over ….

Compared with chain 1 D6I, chain 1 P14K is lower in screen value: 0.000578 average fractional NGS count over selection days 2 and 3 (reads of this peptide / all reads for the bait, averaged over … for the first, 0.000129 average fractional NGS count over selection days 2 and 3 (reads of this peptide / all reads for the bait, averaged over … for the second.

Going from chain 1 F13T to chain 1 F13V, the screen value rises from 0.000161 average fractional NGS count over selection days 2 and 3 (reads of this peptide / all reads for the bait, averaged over … to 0.0169 average fractional NGS count over selection days 2 and 3 (reads of this peptide / all reads for the bait, averaged over ….

Going from chain 1 G7L to chain 1 L4A, the screen value falls from 0.00132 average fractional NGS count over selection days 2 and 3 (reads of this peptide / all reads for the bait, averaged over … to 0.000567 average fractional NGS count over selection days 2 and 3 (reads of this peptide / all reads for the bait, averaged over ….

Going from chain 1 L3T to chain 1 N2R, the screen value rises from 0.000316 average fractional NGS count over selection days 2 and 3 (reads of this peptide / all reads for the bait, averaged over … to 0.00144 average fractional NGS count over selection days 2 and 3 (reads of this peptide / all reads for the bait, averaged over ….

Compared with chain 1 A15F, chain 1 N2I is lower in screen value: 0.00934 average fractional NGS count over selection days 2 and 3 (reads of this peptide / all reads for the bait, averaged over … for the first, 0.00124 average fractional NGS count over selection days 2 and 3 (reads of this peptide / all reads for the bait, averaged over … for the second.

First: chain 1 Q16Y
Second: chain 1 L3H
The screen value of the first is lower: 0.00181 average fractional NGS count over selection days 2 and 3 (reads of this peptide / all reads for the bait, averaged over … for the first, 0.00258 average fractional NGS count over selection days 2 and 3 (reads of this peptide / all reads for the bait, averaged over … for the second.

Compared with chain 1 L4W, chain 1 A15Y is higher in screen value: 0.000151 average fractional NGS count over selection days 2 and 3 (reads of this peptide / all reads for the bait, averaged over … for the first, 0.00082 average fractional NGS count over selection days 2 and 3 (reads of this peptide / all reads for the bait, averaged over … for the second.

Compared with chain 1 N2K, chain 1 V5K is lower in screen value: 0.0015 average fractional NGS count over selection days 2 and 3 (reads of this peptide / all reads for the bait, averaged over … for the first, 0.000183 average fractional NGS count over selection days 2 and 3 (reads of this peptide / all reads for the bait, averaged over … for the second.

First: chain 1 E8S
Second: chain 1 L4E
The screen value of the first is higher: 0.0098 average fractional NGS count over selection days 2 and 3 (reads of this peptide / all reads for the bait, averaged over … for the first, 0.000181 average fractional NGS count over selection days 2 and 3 (reads of this peptide / all reads for the bait, averaged over … for the second.

Compared with chain 1 N2W, chain 1 L3I is lower in screen value: 0.00351 average fractional NGS count over selection days 2 and 3 (reads of this peptide / all reads for the bait, averaged over … for the first, 0.000141 average fractional NGS count over selection days 2 and 3 (reads of this peptide / all reads for the bait, averaged over … for the second.

First: chain 1 D6N
Second: chain 1 E11M
The screen value of the first is higher: 0.00145 average fractional NGS count over selection days 2 and 3 (reads of this peptide / all reads for the bait, averaged over … for the first, 0.000506 average fractional NGS count over selection days 2 and 3 (reads of this peptide / all reads for the bait, averaged over … for the second.

Going from chain 1 E11I to chain 1 Q16H, the screen value falls from 0.00272 average fractional NGS count over selection days 2 and 3 (reads of this peptide / all reads for the bait, averaged over … to 0.00105 average fractional NGS count over selection days 2 and 3 (reads of this peptide / all reads for the bait, averaged over ….

First: chain 1 L3D
Second: chain 1 A15S
The screen value of the first is lower: 0.000942 average fractional NGS count over selection days 2 and 3 (reads of this peptide / all reads for the bait, averaged over … for the first, 0.00474 average fractional NGS count over selection days 2 and 3 (reads of this peptide / all reads for the bait, averaged over … for the second.

First: chain 1 Q16M
Second: chain 1 V5N
The screen value of the first is lower: 0.000404 average fractional NGS count over selection days 2 and 3 (reads of this peptide / all reads for the bait, averaged over … for the first, 0.00052 average fractional NGS count over selection days 2 and 3 (reads of this peptide / all reads for the bait, averaged over … for the second.

Going from chain 1 L3K to chain 1 N2M, the screen value falls from 0.000404 average fractional NGS count over selection days 2 and 3 (reads of this peptide / all reads for the bait, averaged over … to 0.000193 average fractional NGS count over selection days 2 and 3 (reads of this peptide / all reads for the bait, averaged over ….

Going from chain 1 S12M to chain 1 L3G, the screen value rises from 0.000458 average fractional NGS count over selection days 2 and 3 (reads of this peptide / all reads for the bait, averaged over … to 0.000706 average fractional NGS count over selection days 2 and 3 (reads of this peptide / all reads for the bait, averaged over ….

Going from chain 1 Q16I to chain 1 D6V, the screen value rises from 0.000157 average fractional NGS count over selection days 2 and 3 (reads of this peptide / all reads for the bait, averaged over … to 0.000263 average fractional NGS count over selection days 2 and 3 (reads of this peptide / all reads for the bait, averaged over ….

Going from chain 1 Q16W to chain 1 L4S, the screen value rises from 0.000264 average fractional NGS count over selection days 2 and 3 (reads of this peptide / all reads for the bait, averaged over … to 0.000353 average fractional NGS count over selection days 2 and 3 (reads of this peptide / all reads for the bait, averaged over ….

Going from chain 1 F13L to chain 1 S12G, the screen value falls from 0.00118 average fractional NGS count over selection days 2 and 3 (reads of this peptide / all reads for the bait, averaged over … to 0.000406 average fractional NGS count over selection days 2 and 3 (reads of this peptide / all reads for the bait, averaged over ….

Compared with chain 1 N2E, chain 1 S12P is lower in screen value: 0.000269 average fractional NGS count over selection days 2 and 3 (reads of this peptide / all reads for the bait, averaged over … for the first, 0.000126 average fractional NGS count over selection days 2 and 3 (reads of this peptide / all reads for the bait, averaged over … for the second.

First: chain 1 F13P
Second: chain 1 L3S
The screen value of the first is lower: 0.000191 average fractional NGS count over selection days 2 and 3 (reads of this peptide / all reads for the bait, averaged over … for the first, 0.00105 average fractional NGS count over selection days 2 and 3 (reads of this peptide / all reads for the bait, averaged over … for the second.

First: chain 1 G7T
Second: chain 1 N2Q
The screen value of the first is higher: 0.00226 average fractional NGS count over selection days 2 and 3 (reads of this peptide / all reads for the bait, averaged over … for the first, 0.000145 average fractional NGS count over selection days 2 and 3 (reads of this peptide / all reads for the bait, averaged over … for the second.

Compared with chain 1 L3V, chain 1 L4K is higher in screen value: 0.000155 average fractional NGS count over selection days 2 and 3 (reads of this peptide / all reads for the bait, averaged over … for the first, 0.000235 average fractional NGS count over selection days 2 and 3 (reads of this peptide / all reads for the bait, averaged over … for the second.

For chain 1 V5W, the screen value was 0.00157 average fractional NGS count over selection days 2 and 3 (reads of this peptide / all reads for the bait, averaged over ….
